Results from US4602011A, “Antimicrobial compositions and methods of using same” (Chapman Chemical Company, priority 1982, dated 1986).
In brackets after ≈: the same amount, converted by molar mass.

Legend:
Assay in all cases: minimum bactericidal concentration
[1] = system: Bacillus subtillis (37328); format: cell-based, Bacillus subtilis
Escherichia coli (11229) = conditions: for MBC: Escherichia coli, 24 h, read-out: Minimum bactericidal concentration
[2] = system: Pseudomonas aeruginosa (15442); conditions: for MBC: Pseudomonas aeruginosa, 24 h, read-out: Minimum bactericidal concentration
Salmonella typhi (6539) = format: cell-based
[3] = system: Staphylococcus aureus (6538); format: cell-based; conditions: for MBC: Staphylococcus aureus, 24 h, read-out: Minimum bactericidal concentration
[4] = system: Mycobacterium phlei (15610); format: cell-based
Bacillus cereus = system: Bacillus cereus
[5] = system: Flavobacterium arboresceus (4358); conditions: ppm of active ingredient
[6] = system: Bacillus lichenforms (27326)
Proteus vulgaris = conditions: ppm of active ingredient
[7] = system: Klebsiella pneumoniae (4356); conditions: ppm of active ingredient
[8] = system: Alcaligenes faecalis (337); conditions: ppm of active ingredient
[9] = system: Alcaligenes marshalii (21030); conditions: ppm of active ingredient
[10] = system: Bacillus megaterium (27327); conditions: ppm of active ingredient; "1" means 1 or less
[11] = Bacillus, 24 h, read-out: Minimum bactericidal concentration
[12] = ppm of active ingredient, "1" means 1 or less

SMILES: CCCS(=O)(=O)c1c(Cl)cnc(Cl)c1Cl [G]
- MBC [1, 11]: 3 µg/mL (≈ 10.4 µM)
- MBC (Escherichia coli (11229)): 165 µg/mL (≈ 572 µM)
- MBC [2]: 165 µg/mL (≈ 572 µM)
- MBC (Salmonella typhi (6539); Salmonella enterica, TYPHI, 24 h, read-out: Minimum bactericidal concentration): 165 µg/mL (≈ 572 µM)
- MBC [3]: 3 µg/mL (≈ 10.4 µM)
- MBC ([4]; Mycolicibacterium phlei, 24 h, read-out: Minimum bactericidal concentration): 3 µg/mL (≈ 10.4 µM)

SMILES: CCCCCCCCCCCCc1ccc(S(=O)(=O)O)cc1 [DDBSA, dodecyl benzene sulfonic acid]
- Minimum bactericidal concentration (Bacillus cereus; [12]): 100 ppm
- Minimum bactericidal concentration [5]: 10 ppm
- Minimum bactericidal concentration [6, 12]: 100 ppm
- Minimum bactericidal concentration (Proteus vulgaris): 1000 ppm
- Minimum bactericidal concentration [1, 12]: 100 ppm
- Minimum bactericidal concentration (Escherichia coli (11229); ppm of active ingredient): 10,000 ppm
- Minimum bactericidal concentration ([2]; ppm of active ingredient): 1000 ppm
- Minimum bactericidal concentration (Salmonella typhi (6539); ppm of active ingredient): 1000 ppm
- Minimum bactericidal concentration [7]: 10,000 ppm
- Minimum bactericidal concentration [3, 12]: 100 ppm
- Minimum bactericidal concentration [4, 12]: 10 ppm
- Minimum bactericidal concentration [8]: 1000 ppm
- Minimum bactericidal concentration [9]: 100 ppm
- Minimum bactericidal concentration [10]: 100 ppm

SMILES: Oc1c(Cl)c(Cl)c(Cl)c(Cl)c1Cl [F]
- MBC (Bacillus cereus; Bacillus cereus, 24 h, read-out: Minimum bactericidal concentration): 5 to 10 µg/mL (≈ 18.8 to 37.5 µM)
- MBC [6, 11]: 2 to 5 µg/mL (≈ 7.51 to 18.8 µM)
- MBC (Escherichia coli (11229)): 250 to 500 µg/mL (≈ 939 to 1880 µM)
- MBC [2]: 1000 to 2500 µg/mL (≈ 3750 to 9390 µM)
- MBC [3]: 1 to 3 µg/mL (≈ 3.75 to 11.3 µM)
